Biological target: HctB (Lyngbya majuscula, UniProt Q1EDB4)
Settings: with and without NaCl (0.5-1 M), HctB and Ac-HctB, pD 7.5 (CD/MCD), pH 7.5, 10 °C (stopped-flow)

Q: `O=C(O)CCC(=O)C(=O)O` [α-KG] was tested. Which “near-IR CD / MCD and VTVH MCD of the Fe(II) site; stopped-flow absorption of the” value did it give?
A: The value was “CD and MCD spectra of α-KG-Fe(II)-HctB and α-KG-Fe(II)-Ac-HctB in the absence and presence of chloride”.

From paper PMC4091267, “The Role of Chloride in the Mechanism of O2 Activation at the Mononuclear Nonheme Fe(II) Center of the Halogenase HctB” (Journal of the American Chemical Society, 2014)
